Measured values published in PubChem BioAssay (NCATS).
Inconclusive results, whose numbers are uncertain, are shown with a selection of clear calls. Potencies of inconclusive entries are left out as doubtful fits. Active and inactive are the calls of the source. Calls come from the whole dose curve; as a rule, active = well fitted inhibition curve with a large enough effect; inconclusive = small, poorly fitted or top-dose-only effect, or another doubt; inactive = no such curve, though single readings can be large or run the other way.

Biological target: DNA polymerase eta (Homo sapiens) (UniProt Q9Y253)
Chain of UniProt Q9Y253 (Q9Y253 whole entry, looked up): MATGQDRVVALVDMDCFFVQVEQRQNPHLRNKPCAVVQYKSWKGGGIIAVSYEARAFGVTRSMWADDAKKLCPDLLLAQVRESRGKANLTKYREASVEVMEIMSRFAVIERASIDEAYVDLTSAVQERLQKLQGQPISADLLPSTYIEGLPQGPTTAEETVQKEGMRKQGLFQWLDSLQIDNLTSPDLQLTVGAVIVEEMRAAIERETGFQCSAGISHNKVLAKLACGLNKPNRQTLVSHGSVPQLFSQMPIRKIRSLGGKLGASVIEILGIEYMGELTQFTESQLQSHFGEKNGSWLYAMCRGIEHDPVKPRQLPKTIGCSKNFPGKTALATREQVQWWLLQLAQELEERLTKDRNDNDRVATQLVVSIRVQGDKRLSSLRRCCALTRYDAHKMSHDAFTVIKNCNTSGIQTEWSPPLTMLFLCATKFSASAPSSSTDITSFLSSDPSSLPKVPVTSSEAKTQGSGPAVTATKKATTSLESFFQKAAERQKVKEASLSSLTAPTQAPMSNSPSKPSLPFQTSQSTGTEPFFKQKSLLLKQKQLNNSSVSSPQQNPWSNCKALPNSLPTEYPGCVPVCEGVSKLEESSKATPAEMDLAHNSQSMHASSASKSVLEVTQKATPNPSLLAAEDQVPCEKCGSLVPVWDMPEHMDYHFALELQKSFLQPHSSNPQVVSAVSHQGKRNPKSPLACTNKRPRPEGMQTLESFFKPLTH
Experiment: qHTS for Inhibitors of Polymerase Eta: Confirmatory Assay for Cherry-picked Compounds (AID 720502)
Conditions: Pol eta primer extension, TAMRA/BHQ fluorescence, 10 min
Outline: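 Plates with 10 nM enzyme and compound stood 15 min at room temperature before substrate addition (50 nM final). Displacement of the TAMRA reporter from the BHQ-2 template was tracked for 10 min.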
Potency is the fitted concentration of half-maximal effect; tags give direction and shape of the fitted curve.

SMILES	Potency
COc1ccc2cc(-c3nc4ccc(C(=O)O)cc4[nH]3)c(=O)oc2c1	inconclusive [inhibitor, single point]
COCCN(C(=O)COC(=O)Cc1coc2cc3c(cc12)CCC3)c1c(N)n(Cc2ccccc2)c(=O)[nH]c1=O	active: 75.7 µM
COC(=O)c1cc(C(=O)OC)cc(-n2c(C)cc(C(=O)COC(=O)CNS(=O)(=O)c3ccc(C)cc3)c2C)c1	inconclusive [inhibitor, single point]
O=c1oc2ccccc2c2oc3cc(O)c(O)cc3c12	active: 21.3 µM
Cc1ccc(C)c(NC(=O)CCNS(=O)(=O)c2ccc3[nH]c(=O)oc3c2)c1	inconclusive [inhibitor, single point]
COc1cc(/C=C2/C(=O)NN(c3ccc(C)c(Cl)c3)C2=O)cc([N+](=O)[O-])c1O	active: 84.9 µM
CC(C)Sc1ncc(Cl)c(C(=O)N(Cc2ccc(N(C)C)cc2)C2CCS(=O)(=O)C2)n1 (stereo not drawn)	inconclusive [inhibitor, single point]
CCCCCCCCC(=O)c1c(OC)oc(C=O)cc1=O	inconclusive [inhibitor, single point]
O=C1CN(C(=O)COC(=O)c2ccc([N+](=O)[O-])s2)c2ccccc2N1	inconclusive [inhibitor, partial curve]
Cc1nnc(SCC(=O)NCc2ccco2)[nH]c1=O	active: 30.1 µM
Cc1ccc(C(=O)O)cc1N1C(=O)c2cccc3c([N+](=O)[O-])ccc(c23)C1=O	active: 30.1 µM
COc1cc2c(cc1OC)C(=O)C(Br)CC2 (stereo not drawn)	inconclusive [inhibitor, single point]
O=C(Nc1nc2ccccc2s1)C1CCN(S(=O)(=O)c2cc([N+](=O)[O-])ccc2Cl)CC1	inconclusive [inhibitor, single point]
NNC(=O)c1cc(NS(=O)(=O)c2cccs2)cc(NS(=O)(=O)c2cccs2)c1	inconclusive [inhibitor, single point]
O=C(COc1ccc(F)cc1)Nc1nc(-c2cccnc2)cs1	inconclusive [inhibitor, single point]
O=C1Nc2ccccc2Oc2cc(Oc3ccccc3)ccc21	inconclusive [inhibitor, single point]
O=C1CSC(=S)N1/N=C/C=C/c1ccccc1	inconclusive [inhibitor, single point]
O=C1NC(=Nc2ccc3ccccc3c2)S/C1=C/c1ccco1	inconclusive [inhibitor, partial curve, poor fit]
S=c1[nH]nc(-c2cc(-c3ccccc3)n[nH]2)n1/N=C/c1ccc(Br)s1	inconclusive [inhibitor, partial curve, poor fit]
CCc1ccc(NS(=O)(=O)c2ccc3[nH]cc(C(=O)N(C)Cc4ccco4)c(=O)c3c2)cc1	inconclusive [inhibitor, single point]
Cc1ccc(NC(=O)N/C=C/c2ccco2)cc1C	inconclusive [inhibitor, single point]
CCCCC1=CC2=CC(=O)C(C)(OC(=O)CC)C(=O)C2=CO1 (stereo not drawn)	inconclusive [inhibitor, single point]
COc1cccc(NS(=O)(=O)c2ccc3[nH]cc(C(=O)N(C)C4CCCCC4)c(=O)c3c2)c1	inconclusive [inhibitor, single point]
O=C(O)/C(=C/c1ccco1)NC(=O)c1ccccc1	inconclusive [inhibitor, single point]
Cc1ccc(Sc2ccc(/C=C3/C(=O)NN(c4ccccc4)C3=O)o2)cc1	inconclusive [inhibitor, full curve, poor fit]
Cc1ccc(-n2nc3c(=O)n(C(C)C(=O)NCc4ccccc4C)nc(C)c3c2C)cc1 (stereo not drawn)	inconclusive [inhibitor, single point]
Cc1cccc(Cn2c(C)c(C)c3cc(C(=O)NCc4ccco4)ccc32)c1	inconclusive [inhibitor, single point]
CCOc1ccc(C(=O)N/N=C/c2ccc(-c3ccc(S(=O)(=O)Nc4ncccn4)cc3)o2)cc1	inconclusive [inhibitor, full curve, poor fit]
